# This is one part of the list. At the low end of the ranking the order means little.
# Target: T1, GST-Rok-C97-191 (UniProt O34857)
# T1 sequence: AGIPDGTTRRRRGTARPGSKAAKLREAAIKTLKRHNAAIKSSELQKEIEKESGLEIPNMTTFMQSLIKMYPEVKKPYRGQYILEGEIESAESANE
# Assay: protein binding microarray;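 note: rank score from −0.5 (least bound) to 0.5 (best bound)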
# Details: Rok is a gene silencer of Bacillus subtilis; high values mean tight binding; most listed sequences are background and not binding sites; double strand, one strand shown
row,Sequence,binding signal
1,ATTGTCTC,0.00537 E-score
2,AACGTATC,0.137 E-score
3,AAGCGTTA,-0.11 E-score
4,ACTTCGTC,-0.14 E-score
5,AGCGAGGG,-0.218 E-score
6,ACACGGAA,-0.051 E-score
7,ACGCCCTC,-0.299 E-score
8,CTCAATCA,-0.0895 E-score
9,AGCTACGC,-0.0753 E-score
10,CTGAAACA,-0.184 E-score
11,GAGAGTAA,0.018 E-score
12,GTGTCTCA,-0.133 E-score
13,GTCCGGAC,0.0954 E-score
14,GGTGGAAC,-0.272 E-score
15,CCGCGGTC,-0.239 E-score
16,AGCTCTAT,0.0899 E-score
17,AGCCCTTC,-0.159 E-score
18,CTACTTTA,0.337 E-score
19,AGCACCTA,-0.01 E-score
20,AACTCCTT,-0.154 E-score
21,GCGAATCA,-0.277 E-score
22,ACGTGAGC,-0.0668 E-score

row,Sequence,binding signal
1,AATCACAC,0.137 E-score
2,AACACCAC,-0.113 E-score
3,AAATCCGG,0.0106 E-score
4,CCTGTGCC,-0.0553 E-score
5,GGCACAGA,-0.0314 E-score
6,GTGTAAAC,0.0287 E-score
7,AAGTAACC,-0.166 E-score
8,AGCCATAC,-0.0885 E-score
9,AATTCTAA,0.286 E-score
10,ATAGTCAA,0.23 E-score
11,AGATTTGA,0.149 E-score
12,AGGACTTG,-0.0847 E-score
13,GGATGGCA,-0.288 E-score
14,AAATCTAA,0.202 E-score
15,GCGAAAAC,0.0938 E-score
16,AATACATA,0.308 E-score
17,ACACCATA,-0.155 E-score
18,ACTATGCA,0.273 E-score
19,GGTGTAAC,-0.0285 E-score
20,CTTCTGTA,0.0822 E-score
21,GAGCTTAA,-0.111 E-score
22,AATATAGT,0.337 E-score

row,Sequence,binding signal
1,ACATTTCC,0.122 E-score
2,CACATTAG,0.175 E-score
3,ATCGTTAG,-0.138 E-score
4,GGCGCAGA,-0.161 E-score
5,AGATAGAG,0.128 E-score
6,GGCAGGTA,-0.0893 E-score
7,CAAGTACA,0.151 E-score
8,ATATCGGC,0.132 E-score
9,ATTTATAA,0.294 E-score
10,CCTACACA,-0.0862 E-score
11,CCATAACA,0.0044 E-score
12,CATACAGA,0.074 E-score
13,CTTGACCA,-0.0401 E-score
14,CACATTCG,-0.0205 E-score
15,AAGCGGGC,-0.237 E-score
16,CAGGGATC,-0.151 E-score
17,GAAGTTCC,0.00186 E-score
18,GCGGACAA,0.0143 E-score
19,GTCGCTCA,-0.178 E-score
20,ACTAACAA,0.145 E-score
21,ACCGGTAG,0.335 E-score
22,CCCAGGTA,0.139 E-score

row,Sequence,binding signal
1,GAAACCCC,-0.257 E-score
2,GTAGTGAC,0.104 E-score
3,CATAAAGC,-0.119 E-score
4,GGAAGACC,-0.269 E-score
5,GCAGGTCC,-0.212 E-score
6,ACGCGCGT,-0.0522 E-score
7,TGGTCTAA,0.0359 E-score
8,GTTAACTA,0.376 E-score
9,CCAACCGG,-0.0823 E-score
10,GTCTGTCA,-0.198 E-score
11,ACAGGCAA,-0.103 E-score
12,ACGCGGAT,0.0372 E-score
13,GCAAGAGC,0.025 E-score
14,ACCACGAA,-0.121 E-score
15,ATTACTGG,0.0256 E-score
16,ACTGATCG,-0.00184 E-score
17,CAGTTGAG,0.154 E-score
18,TCATGGCA,-0.195 E-score
19,AGTAGGCC,-0.0718 E-score
20,CCATAGCG,0.0847 E-score
21,CTAAGTGC,-0.0912 E-score
22,GAACTATA,0.29 E-score

row,Sequence,binding signal
1,CTTTTCTC,-0.0564 E-score
2,CAGTCCGA,-0.104 E-score
3,ACCCGAGT,-0.0212 E-score
4,GCGTGCAC,-0.00144 E-score
5,CACTTAAC,0.15 E-score
6,AGTCCTAT,0.102 E-score
7,ACGCTCAA,-0.0503 E-score
8,CCATTCCC,-0.108 E-score
9,CAGTACGC,-0.15 E-score
10,GGGCTACA,-0.0485 E-score
11,CGCTTTAA,-0.0773 E-score
12,GCATAGGC,-0.0886 E-score
13,TCTATGAA,0.163 E-score
14,CCTTAGGC,-0.19 E-score
15,CAGAGAAG,-0.0435 E-score
16,ACGTATAT,0.373 E-score
17,GTGCACCA,-0.138 E-score
18,ACAGCTGT,0.0119 E-score
19,ACCATTCA,0.0811 E-score
20,CCATTCTA,0.324 E-score
21,AAATTACA,0.325 E-score
22,CCGGGCAC,-0.216 E-score

# Source: PMC6212790
